Results: the supplement of paper PMC11417369
± gives the standard deviation of the averaged measurements. The list shows a part of the results.

System: PfAP2-I AP2 domain 3 (GST-tagged)
Experiment: gcPBM binding intensity (ln(normalized median fluorescence intensity)); higher = stronger DNA binding
Procedure, shortened: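 Binding of GST-tagged P. falciparum DNA-binding domains, expressed in E. coli and used at about 25 μg on average, was carried out for 1 h in 1× PBS containing 1% milk, 0.2 mg/ml BSA, 0.5% salmon testes DNA and 0.03% Triton X-100. The target was an Agilent 4 × 180k array of primer-extended double-stranded 36-bp intergenic genomic probes plus negative controls, read with Alexa488 anti-GST antibody at 488 nm. Binding intensity is the highest Masliner-normalised natural-log median intensity across replicate spots of either probe orientation.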

Sequence | gcPBM binding intensity (ln)
GGAAAAAAAAATAAATGTACGAATTAACATATCAAA [XGTACX_site5653] | 7.54 ± 0.79
ATGGAAGGATAATAAAAACCTTTACCTTTCTGTTTA [GTGCAC_negctrl_site380] | 7.42 ± 0.76
ATAATGAAAACAAGCACACATACATAAAATAAAATA [CACACA_site3257] | 7.95 ± 0.6
ATAAATTTTTAAACAGCACACATAAATATAATATAT [CACACA_site8691] | 8.28 ± 0.4
AATATTACAATTTGGTGTACAGGTGCACATGCCTCA [XGTACX_site1730] | 10.6 ± 0.33
TAGCTTATAAGATATGCACACACAACACTTACAAAA [CACACA_site8174] | 8.62 ± 0.15
TCTACAATTTTAATTACACACTATAAAAAAGAAAGA [CACACA_site5624] | 7.92 ± 0.48
TTTAAAATTATAAGGATTAAAAAAAAAAAAAATAAA [CACACA_negctrl_site114] | 7.5 ± 0.43
AACAAATAAAAAAAAATAAAAATAAAAATAAAAAAA [XGTACX_negctrl_site451] | 7.5 ± 0.49
AAGAATTATATTAATAGTACATATATATTAATTTAT [XGTACX_site5713] | 7.55 ± 0.38
TTATTTATGAAGTATACACACAATATAGATTTATAT [CACACA_site6703] | 7.55 ± 0.67
TTTTGTTATTATAAATAGTAACATTTGTGAATATAT [TGCATGCA_negctrl_site132] | 7.58 ± 0.5
AAGACATTTTTTTGTTGTACGTCTTCATTTATTGTA [XGTACX_site2890] | 8.03 ± 0.55
TATTAATATGGTAATACACACTAATATACTTTTGTT [CACACA_site6860] | 7.72 ± 0.64
ATATATATATATATATGTACGTATTCATAAACAACA [XGTACX_site4282] | 9.4 ± 0.31
CTGTAAAAAATATAAACACACATAGAGATATATAAA [CACACA_site6292] | 7.8 ± 0.57
TTTAATGTTACTCCTTGTACACAAAATAGTGTTATA [XGTACX_site8416] | 7.97 ± 0.43
TAAGTATATTTTATATGTACTTATATATTTAATTTT [XGTACX_site4615] | 7.37 ± 0.23
ATAGGTTCCCAAAATGCACACCAATGAAATTATTTA [CACACA_site8081] | 9.05 ± 0.014
CAAGCTTTTTCCTTTACACACATTAGTTATTTATAT [CACACA_site6781] | 8.16 ± 0.57
ATATTATTTTAAAGTACACACATATATTAAGATATA [CACACA_site5306] | 8.05 ± 0.31
TTAATATATTATCTGGTGCATAAACACGTTATACCT | 11.3 ± 0.64
CAGTATTACATGAGGACACACACAAAAAAAATATAT [CACACA_site8156] | 8.09 ± 0.47
ATGATTTCACAAGACACACACATACAAATTTATATA [CACACA_site3909] | 8.19 ± 0.52
